Where “and” joins values, the source holds several entries; their conditions need not be identical. Identical values can stand only once. Hit rate of the full screen: of about 340,000 compounds, about 12,000 (3.5%) were called active. The shares of active, inactive and inconclusive entries below differ from those in the screen. Calls follow the shape of the dose curve; as a rule, active = well fitted inhibition curve with a large enough effect; inconclusive = small, poorly fitted or top-dose-only effect, or another doubt; inactive = no such curve, though single readings can be large or run the other way. A potency beside an inconclusive call is a rough fit, not a confirmed value.
Assay: qHTS Assay for Inhibitors of Hepatitis C Virus (HCV)
Details: Huh7.5.1 HCVcc-Cre (HCVcc is cell-culture hepatitis C virus) infection, luciferase reporter, 44 h; activity change, negative = inhibition: at 41.8 µM (top of the series) unless noted
How it was run: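 Seed cells (1,000/well) for 4 h; treat with compound and infect with HCVcc-Cre, moi about 0.5. Incubate 44 h, then detect luciferase activity.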
% is scaled to controls: 0 for no effect and ±100 for the full control effect; potency is read from the fitted curve at half-maximal effect; tags tell the direction and shape of the fitted curve.

Structure (SMILES)	Potency	activity change, negative = inhibition
COC(=O)[C@H](CCSC)NC(=O)Cn1cnc2c(SC)nc(N)nc21	inactive	
OC(COc1ccc(CN2CCCCO2)cc1)CN1CCCCC1 (stereo not given)	inconclusive: 31.6 µM [inhibitor, single point]	
CC(=O)C1=CN(Cc2ccccc2)CCC1=O	inactive	
Cc1cc[n+](Cc2ccc([N+](=O)[O-])cc2)cc1	inactive	
COc1cc2c(ccc3c4cc(OC)c(OC)cc4c[n+](C)c23)cc1O	inconclusive: 2 µM [inhibitor, partial curve]	
CCCC(=O)N1CCN(c2ccc(NC(=O)c3cc4ccccc4o3)cc2)CC1	active: 10 µM	
CC(=O)Nc1ccc(S(=O)(=O)N(C)c2ccc(OCC(=O)NCCc3ccccc3F)cc2)cc1	inconclusive: 12.6 µM [inhibitor, partial curve]	
CCCc1cc2c(cc1N(C)S(=O)(=O)c1ccccc1)OCO2	inconclusive: 8.91 µM [inhibitor, partial curve]	
O=C(OCC(=O)N1CCC(c2ccccc2)=N1)c1ccc(Cl)s1	inactive	
O=C(NCCc1ccc(F)cc1)c1cc2ccccc2oc1=O	inactive	
OCCCCNCc1ccc(OCc2ccc(Cl)cc2Cl)cc1	active: 6.31 µM	
CC(CCc1ccccc1)NC(=O)c1ccncc1 (stereo not given)	inactive	
CN(C(=O)c1cccc(NC(=O)Cc2ccc(NC(=O)C3CCCN(C(=O)C4CCC4)C3)cc2)c1)C1CCCCC1 (stereo not given)	inconclusive: 2 µM [inhibitor, partial curve]	
COc1ccccc1C(=O)OCC(=O)Nc1cccc(S(=O)(=O)N2CCCC2)c1	inactive	
COc1ccccc1NC(=O)Cn1cnc2sc(C)c(S(=O)(=O)N3CCCCC3)c2c1=O	inconclusive: 31.6 µM [inhibitor, single point]	
CCCCN(CCCC)S(=O)(=O)c1ccc(NC(=O)c2ccc([N+](=O)[O-])cc2Cl)cc1	inconclusive: 11.2 µM [inhibitor, partial curve]	
CCOC(=O)C1=C(C)N(Cc2ccccc2)C(=O)NC1c1ccccc1OS(=O)(=O)c1ccccc1[N+](=O)[O-] (stereo not given)	inconclusive: 5.01 µM [inhibitor, full curve]	
COc1cc(CC(=O)OCc2ccccc2F)cc(OC)c1OC	inconclusive: 11.2 µM [inhibitor, single point]	
CN1CCN(C(=O)CCCOc2ccc(Cl)cc2Cl)CC1	inconclusive: 5.01 µM [inhibitor, partial curve]	
COc1cc2nc(C3CCC3)nc(N3CCN(c4ccccc4OC)CC3)c2cc1OC	active: 3.16 µM	
CCC(C)NC(=O)CN1C(=O)CC(C)(C)S(=O)(=O)c2ccccc21 (stereo not given)	inactive	
COCCCNC(=O)C[C@H]1C[C@H](C(=O)N2CCCCC2)[C@@]2(CCc3ccccc3)c3[nH]c4cc(CCC(=O)N(C)C)ccc4c3CCN2C1=O	inconclusive: 3.98 µM [inhibitor, single point]	
O=C(Nc1nccs1)C1CCN(S(=O)(=O)c2ccc3c(c2)OCCCO3)CC1	inconclusive: 11.2 µM [inhibitor, partial curve, poor fit]	

Structure (SMILES)	Potency	activity change, negative = inhibition
N#Cc1cccnc1N1CCN(C(=O)c2cccc3c2C(=O)c2ccc(Cl)cc2S3(=O)=O)CC1	active: 12.6 µM	
CN1CCN(CC(=O)N2CCn3c4c(c5cc(C6CCCCC6)ccc53)CCCC42)CC1 (stereo not given)	active: 7.94 µM	
N#C/C(=C\c1cccnc1)c1ccc(Br)cc1	inconclusive: 14.1 µM [inhibitor, single point]	
CCC(=O)c1ccc(OCC(O)CN(CCc2ccccc2)Cc2ccccc2)cc1 (stereo not given)	inconclusive: 31.6 µM [inhibitor, single point]	
CC(C)C(=O)N/N=C/c1ccc(OCc2ccccc2)cc1	inactive	
COc1cc(C(=O)Nc2nc3ccc(S(=O)(=O)N4CCOCC4)cc3s2)cc(OC)c1OC	inconclusive: 12.6 µM [inhibitor, partial curve] and inconclusive: 1.78 µM [inhibitor, full curve, poor fit]	
O=C(Nc1ccccc1)C1=C[C@H](c2ccc3c(c2)OCO3)C[C@H](OCc2ccc(CO)cc2)O1	inconclusive: 3.16 µM [inhibitor, single point]	
c1ccc(-c2cc3ncccc3cn2)cc1	inactive	
COc1ccccc1CNC(=O)CSc1ncc(C(=O)Nc2ccccc2)c(=O)n1C	inconclusive: 7.94 µM [inhibitor, partial curve]	
Cc1ccc(S(=O)(=O)N2CCC(=O)N(CCOCc3cccc(Cl)c3)CC2)cc1		inactive: 7.09% [at 8.37 µM]
CCS(=O)(=O)c1ccc(-c2cccc(NC(=O)c3ccco3)c2)nn1	inconclusive: 31.6 µM [inhibitor, single point]	
O=C(NCc1ccccc1Cl)C1CCC(=O)N1Cc1ccc(F)cc1 (stereo not given)	inactive	
COc1ccc(NC(=O)c2ccc(-n3cccn3)nc2)cc1	inconclusive: 1.58 µM [inhibitor, full curve]	
CCOC(=O)C1CCCN(C(=O)c2ccc(Cl)c(S(=O)(=O)N3CCCCCC3)c2)C1 (stereo not given)	inconclusive: 12.6 µM [inhibitor, partial curve]	
COc1ccc(C(=O)OCC(=O)c2ccc3c(c2)NC(=O)CO3)cc1[N+](=O)[O-]	inconclusive: 1.78 µM [inhibitor, partial curve]	
Cc1ccc(NC(=O)c2ccc(Cl)c(S(=O)(=O)N3CCc4ccccc43)c2)nc1	inconclusive: 31.6 µM [inhibitor, single point]	
CCc1ccccc1NC(=O)CN(c1ccc(OC)cc1OC)S(=O)(=O)c1ccccc1	inactive	
CN(CCOc1ccc(Cl)cc1)C(=O)CN1C(=O)NC2(CCCC2)C1=O	inconclusive: 11.2 µM [inhibitor, single point]	
NNCCc1ccccc1	inactive	
O=Cc1cc(CCC(=O)O)ccc1O	inactive	
CC(=O)C1=NN(c2ccc(Cl)cc2)C(c2ccc3c(c2)OCO3)N(C(C)=O)N1C (stereo not given)	inconclusive: 11.2 µM [inhibitor, single point]	
CC(C)CCN(C(=O)c1cn2ccccc2n1)c1c(N)n(Cc2ccccc2)c(=O)[nH]c1=O	inconclusive: 31.6 µM [inhibitor, single point]	

From PubChem BioAssay AID651820 (National Center for Advancing Translational Sciences (NCATS), 2012)
